Paper PMC6656915, “The MmpL3 interactome reveals a complex crosstalk between cell envelope biosynthesis and cell elongation and division in mycobacteria” (Scientific Reports, 2019)
These are yes or no findings as the source states them, for the method shown. Some entries that bind do so weakly or less than the wild type. For some of these results: Where a sequence is shown, tags or fusion partners need not be part of it.

Sequences of proteins named here, by UniProt entry; tags and fusion partners are left off. Residues count along the entry.
UniProt P9WQP3, residues 44-338: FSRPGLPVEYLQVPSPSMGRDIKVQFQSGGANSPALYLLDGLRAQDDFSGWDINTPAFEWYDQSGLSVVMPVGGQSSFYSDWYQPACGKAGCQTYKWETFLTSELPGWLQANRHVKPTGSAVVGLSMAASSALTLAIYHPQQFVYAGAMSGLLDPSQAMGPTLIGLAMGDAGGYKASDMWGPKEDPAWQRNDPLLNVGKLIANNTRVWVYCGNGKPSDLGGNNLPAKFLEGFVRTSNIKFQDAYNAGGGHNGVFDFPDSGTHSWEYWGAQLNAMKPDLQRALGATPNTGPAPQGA
UniProt I6X8D2: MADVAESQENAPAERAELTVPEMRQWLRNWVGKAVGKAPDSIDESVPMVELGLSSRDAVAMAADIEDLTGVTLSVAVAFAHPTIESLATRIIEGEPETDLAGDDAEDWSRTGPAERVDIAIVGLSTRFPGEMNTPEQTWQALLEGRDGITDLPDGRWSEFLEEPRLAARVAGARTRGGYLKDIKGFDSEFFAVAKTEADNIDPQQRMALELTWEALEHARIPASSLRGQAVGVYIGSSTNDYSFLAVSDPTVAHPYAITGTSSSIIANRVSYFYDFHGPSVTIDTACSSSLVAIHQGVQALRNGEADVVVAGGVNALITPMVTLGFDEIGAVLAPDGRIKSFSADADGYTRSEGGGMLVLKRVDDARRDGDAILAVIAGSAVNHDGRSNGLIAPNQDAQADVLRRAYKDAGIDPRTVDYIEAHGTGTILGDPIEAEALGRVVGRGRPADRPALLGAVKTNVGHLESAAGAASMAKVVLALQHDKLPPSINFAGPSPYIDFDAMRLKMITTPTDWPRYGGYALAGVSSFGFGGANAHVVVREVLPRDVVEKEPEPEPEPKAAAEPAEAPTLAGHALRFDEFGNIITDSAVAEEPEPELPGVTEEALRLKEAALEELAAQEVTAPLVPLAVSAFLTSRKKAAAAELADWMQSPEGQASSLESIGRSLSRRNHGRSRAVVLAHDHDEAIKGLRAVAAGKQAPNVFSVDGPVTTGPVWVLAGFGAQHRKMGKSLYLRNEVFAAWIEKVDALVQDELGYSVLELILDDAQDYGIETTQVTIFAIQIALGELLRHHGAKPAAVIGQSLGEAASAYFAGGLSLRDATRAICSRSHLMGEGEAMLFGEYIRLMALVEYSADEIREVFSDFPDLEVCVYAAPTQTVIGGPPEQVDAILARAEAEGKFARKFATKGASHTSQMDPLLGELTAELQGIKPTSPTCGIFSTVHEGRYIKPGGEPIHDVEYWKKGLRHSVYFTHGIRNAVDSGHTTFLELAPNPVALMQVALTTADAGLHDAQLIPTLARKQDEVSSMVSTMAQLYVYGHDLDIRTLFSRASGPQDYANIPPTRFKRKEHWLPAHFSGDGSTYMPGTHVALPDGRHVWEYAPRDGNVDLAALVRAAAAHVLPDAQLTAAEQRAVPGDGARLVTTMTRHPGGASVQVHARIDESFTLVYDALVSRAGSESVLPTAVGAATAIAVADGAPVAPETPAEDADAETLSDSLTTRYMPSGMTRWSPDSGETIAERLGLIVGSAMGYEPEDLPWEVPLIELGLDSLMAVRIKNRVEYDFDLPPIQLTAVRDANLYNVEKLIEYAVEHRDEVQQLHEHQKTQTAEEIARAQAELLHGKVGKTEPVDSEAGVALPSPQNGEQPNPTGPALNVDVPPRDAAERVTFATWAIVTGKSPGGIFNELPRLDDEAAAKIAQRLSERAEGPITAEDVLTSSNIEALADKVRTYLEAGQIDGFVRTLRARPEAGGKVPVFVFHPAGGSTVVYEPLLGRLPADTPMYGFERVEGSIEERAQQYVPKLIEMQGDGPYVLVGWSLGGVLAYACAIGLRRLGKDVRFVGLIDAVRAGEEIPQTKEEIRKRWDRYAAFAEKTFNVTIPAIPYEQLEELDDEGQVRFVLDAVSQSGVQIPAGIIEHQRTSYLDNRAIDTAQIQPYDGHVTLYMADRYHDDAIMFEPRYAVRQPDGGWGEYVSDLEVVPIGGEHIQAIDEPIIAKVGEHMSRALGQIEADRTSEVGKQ
UniProt P9WM21: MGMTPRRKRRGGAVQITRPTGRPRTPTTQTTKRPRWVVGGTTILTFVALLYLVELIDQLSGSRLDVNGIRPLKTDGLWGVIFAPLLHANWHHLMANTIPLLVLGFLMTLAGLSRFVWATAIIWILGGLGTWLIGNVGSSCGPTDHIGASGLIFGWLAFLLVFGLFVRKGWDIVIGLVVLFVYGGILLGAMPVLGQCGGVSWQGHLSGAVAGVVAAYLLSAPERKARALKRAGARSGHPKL
UniProt P9WQN9, residues 46-340: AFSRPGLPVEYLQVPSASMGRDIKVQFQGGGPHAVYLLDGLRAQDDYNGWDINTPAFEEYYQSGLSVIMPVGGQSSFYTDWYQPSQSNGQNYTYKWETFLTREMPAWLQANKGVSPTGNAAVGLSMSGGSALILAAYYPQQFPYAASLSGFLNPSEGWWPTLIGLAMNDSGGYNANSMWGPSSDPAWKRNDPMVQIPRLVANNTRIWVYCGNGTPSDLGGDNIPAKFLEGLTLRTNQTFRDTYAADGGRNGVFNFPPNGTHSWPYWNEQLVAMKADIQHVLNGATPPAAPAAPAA
UniProt O05436: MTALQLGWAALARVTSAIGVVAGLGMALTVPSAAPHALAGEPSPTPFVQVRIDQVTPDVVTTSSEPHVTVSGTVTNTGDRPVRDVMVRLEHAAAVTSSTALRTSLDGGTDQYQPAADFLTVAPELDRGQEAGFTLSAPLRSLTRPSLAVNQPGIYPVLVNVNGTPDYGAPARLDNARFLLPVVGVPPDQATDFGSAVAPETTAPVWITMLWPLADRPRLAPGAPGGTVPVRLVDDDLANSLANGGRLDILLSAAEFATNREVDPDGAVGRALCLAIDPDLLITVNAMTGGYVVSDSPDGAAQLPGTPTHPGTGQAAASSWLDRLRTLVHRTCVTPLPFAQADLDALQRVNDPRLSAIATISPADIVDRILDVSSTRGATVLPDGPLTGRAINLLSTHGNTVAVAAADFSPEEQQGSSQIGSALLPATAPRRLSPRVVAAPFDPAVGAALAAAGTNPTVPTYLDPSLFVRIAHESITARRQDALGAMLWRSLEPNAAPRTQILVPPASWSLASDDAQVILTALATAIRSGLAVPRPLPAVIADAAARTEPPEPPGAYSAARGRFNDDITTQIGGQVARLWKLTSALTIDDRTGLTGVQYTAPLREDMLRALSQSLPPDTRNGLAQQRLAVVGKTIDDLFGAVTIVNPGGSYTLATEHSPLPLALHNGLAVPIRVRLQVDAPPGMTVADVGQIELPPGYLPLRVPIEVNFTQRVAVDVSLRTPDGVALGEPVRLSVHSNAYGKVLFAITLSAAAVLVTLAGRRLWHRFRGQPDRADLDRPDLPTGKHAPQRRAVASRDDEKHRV
UniProt I6Y748: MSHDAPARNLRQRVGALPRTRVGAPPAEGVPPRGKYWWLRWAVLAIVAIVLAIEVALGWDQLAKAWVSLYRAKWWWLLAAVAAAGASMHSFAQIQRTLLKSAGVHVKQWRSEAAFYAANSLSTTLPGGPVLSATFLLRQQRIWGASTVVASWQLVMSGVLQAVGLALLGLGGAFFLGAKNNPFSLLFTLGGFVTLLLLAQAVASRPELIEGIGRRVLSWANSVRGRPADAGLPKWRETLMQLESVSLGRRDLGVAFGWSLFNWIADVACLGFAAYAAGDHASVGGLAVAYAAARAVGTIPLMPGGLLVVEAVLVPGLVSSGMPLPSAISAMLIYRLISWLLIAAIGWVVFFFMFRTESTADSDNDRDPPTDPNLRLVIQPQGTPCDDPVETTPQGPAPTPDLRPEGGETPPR
UniProt P9WQP1, residues 41-325: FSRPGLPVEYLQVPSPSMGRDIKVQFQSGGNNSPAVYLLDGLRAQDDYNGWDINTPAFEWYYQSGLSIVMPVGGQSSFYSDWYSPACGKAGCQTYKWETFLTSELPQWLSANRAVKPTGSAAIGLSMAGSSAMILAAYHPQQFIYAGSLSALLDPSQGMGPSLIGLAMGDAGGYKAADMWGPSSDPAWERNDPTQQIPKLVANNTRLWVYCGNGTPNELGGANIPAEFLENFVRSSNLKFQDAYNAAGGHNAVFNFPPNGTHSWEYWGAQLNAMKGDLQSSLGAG

Tests used:
[1] = target: T1, MmpL3 protein from M. tuberculosis, C-terminally hexahistidine-tagged, devoid of gfp fusion (M. tuberculosis) (UniProt P9WJV5); assay: SPR; MmpL3 immobilised on CM5 chip; analytes injected at two-fold increasing concentrations from 0.6 µM up to 10 µM, 10 µL/min for 30 sec, dissociation 180 sec, 25 °C; 20 mM HEPES pH 7.4, 150 mM NaCl, 0.2% Triton X-100 (0.03% DDM instead for AftD); global fit to the 1:1 Langmuir binding model; both purified
T1 sequence: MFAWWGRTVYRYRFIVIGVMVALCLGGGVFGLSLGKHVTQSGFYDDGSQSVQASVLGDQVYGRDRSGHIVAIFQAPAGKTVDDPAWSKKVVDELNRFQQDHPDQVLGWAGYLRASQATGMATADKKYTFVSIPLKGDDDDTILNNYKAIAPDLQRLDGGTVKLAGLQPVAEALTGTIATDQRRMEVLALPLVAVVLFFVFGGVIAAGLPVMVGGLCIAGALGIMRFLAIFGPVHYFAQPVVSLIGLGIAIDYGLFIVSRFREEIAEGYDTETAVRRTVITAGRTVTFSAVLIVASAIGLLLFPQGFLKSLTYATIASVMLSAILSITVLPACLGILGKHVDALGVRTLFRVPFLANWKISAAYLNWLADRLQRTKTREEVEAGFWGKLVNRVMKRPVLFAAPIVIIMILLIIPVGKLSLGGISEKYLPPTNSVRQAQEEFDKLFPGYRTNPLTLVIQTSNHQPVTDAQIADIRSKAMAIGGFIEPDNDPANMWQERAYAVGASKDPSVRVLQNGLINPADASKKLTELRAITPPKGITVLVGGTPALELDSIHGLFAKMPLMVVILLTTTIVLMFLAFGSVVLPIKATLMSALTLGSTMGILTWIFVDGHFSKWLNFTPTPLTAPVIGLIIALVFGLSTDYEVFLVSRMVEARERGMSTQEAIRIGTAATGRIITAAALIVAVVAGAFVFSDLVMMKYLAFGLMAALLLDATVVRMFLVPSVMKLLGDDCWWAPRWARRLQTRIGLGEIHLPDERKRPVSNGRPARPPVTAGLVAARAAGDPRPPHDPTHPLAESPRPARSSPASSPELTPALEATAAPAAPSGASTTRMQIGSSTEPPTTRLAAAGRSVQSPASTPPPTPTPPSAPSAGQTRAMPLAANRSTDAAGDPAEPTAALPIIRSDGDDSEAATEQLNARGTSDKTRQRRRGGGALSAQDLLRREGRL

[2] = target: T2, MmpL3 (full-size), T18/T25 fusion (M. tuberculosis) (UniProt P9WJV5); assay: two-hybrid
T2 sequence: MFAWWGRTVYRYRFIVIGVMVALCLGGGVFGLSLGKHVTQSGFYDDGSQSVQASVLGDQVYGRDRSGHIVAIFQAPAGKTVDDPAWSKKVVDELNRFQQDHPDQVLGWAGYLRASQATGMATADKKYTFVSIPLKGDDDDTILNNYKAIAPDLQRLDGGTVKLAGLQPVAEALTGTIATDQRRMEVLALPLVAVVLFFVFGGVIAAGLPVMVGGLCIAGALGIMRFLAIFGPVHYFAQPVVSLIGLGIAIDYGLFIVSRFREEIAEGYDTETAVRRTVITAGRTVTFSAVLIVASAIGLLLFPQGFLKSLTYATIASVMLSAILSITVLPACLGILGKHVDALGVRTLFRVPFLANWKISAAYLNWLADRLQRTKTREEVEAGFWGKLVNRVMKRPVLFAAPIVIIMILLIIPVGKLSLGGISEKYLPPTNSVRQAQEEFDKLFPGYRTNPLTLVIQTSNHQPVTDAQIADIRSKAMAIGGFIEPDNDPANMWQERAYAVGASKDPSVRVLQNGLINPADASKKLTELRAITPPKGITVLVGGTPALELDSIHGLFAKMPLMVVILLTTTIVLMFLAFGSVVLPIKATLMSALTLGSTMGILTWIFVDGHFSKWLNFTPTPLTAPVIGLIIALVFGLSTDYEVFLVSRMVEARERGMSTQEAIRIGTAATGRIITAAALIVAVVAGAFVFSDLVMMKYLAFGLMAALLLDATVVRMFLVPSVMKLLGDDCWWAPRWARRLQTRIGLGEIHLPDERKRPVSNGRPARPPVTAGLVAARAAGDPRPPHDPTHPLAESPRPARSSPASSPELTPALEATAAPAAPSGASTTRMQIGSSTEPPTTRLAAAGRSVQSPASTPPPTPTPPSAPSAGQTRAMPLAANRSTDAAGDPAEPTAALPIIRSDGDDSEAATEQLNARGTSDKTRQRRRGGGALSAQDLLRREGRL

[3] = target: MmpL3tb^1–744, T18/T25 fusion (M. tuberculosis) (UniProt P9WJV5); assay: two-hybrid

FbpA mycolyltransferase (Ag85 complex), native purified protein (from UniProt P9WQP3 44-338) (enzyme)
binding [1]: no binding (tested: 10 µM)

Pks13, T18/T25 fusion (from UniProt I6X8D2 1-1733)
binding [2]: no binding

Rv0227c, T18/T25 fusion (from UniProt P96409 1-421)
binding [2]: binds | binding [3]: binds

Rv3271c, T18/T25 fusion (from UniProt P96876 1-222)
binding [2]: binds | binding [3]: binds

Rv1337, T18/T25 fusion (from UniProt P9WM21 1-240)
binding [2]: binds | binding [3]: binds

Pks13 from M. tuberculosis H37Rv with C-terminal hexahistidine tag (from UniProt I6X8D2 1-1733) (enzyme)
binding [1]: no binding (tested: 10 µM)

FbpC mycolyltransferase (Ag85 complex), native purified protein (from UniProt P9WQN9 46-340) (enzyme)
binding [1]: no binding (tested: 10 µM)

Rv3064c, T18/T25 fusion (from UniProt I6XG31 1-141)
binding [2]: binds | binding [3]: binds

Rv3909, T18/T25 fusion (from UniProt O05436 1-802)
binding [2]: binds | binding [3]: binds

LppT, T18/T25 fusion (from UniProt A5U3G6 1-63)
binding [2]: binds | binding [3]: binds

Rv0204c, T18/T25 fusion (from UniProt I6Y748 1-412)
binding [2]: binds | binding [3]: binds

FbpB mycolyltransferase (Ag85 complex), native purified protein (from UniProt P9WQP1 41-325) (enzyme)
binding [1]: no binding (tested: 10 µM)
